# In US10894817B2, “Fatty acid modified urocortin-2 analogs for the treatment of diabetes and chronic kidney disease” (priority 2016, dated 2021):
# For at least one compound, name, drawing or mass did not settle the structure. Some of these results come from one statement about several compounds together. Starred links: 1 amine or outer side, 2 acyl side, 3 side chain; linkers in the order of their positions; H or OH if unused. Non-standard residues stand in square brackets, D forms with d. Residues, ends and D or L forms follow the SMILES beside them. Groups on a side chain read outwards from the residue. *: point of attachment. C20 diacid = O=C(O)CCCCCCCCCCCCCCCCCCC(=O)*; γGlu = O=C(O)[C@H](CCC(=O)[*:2])N[*:1]; NMeI = CC[C@H](C)[C@H](NC)C(=O)O; AEEA = NCCOCCOCC(=O)O
# Key:
# [1] = tested on: db/db mice; experiment: In vivo leptin receptor deficient (db/db) mice, chronic dose administration
# [2] = biological target: T1, human CRHR1 (Homo sapiens, UniProt P34998); experiment: human CRHR1 cell-based cAMP assay (Y79 cells); settings: statement in words; cAMP assays
# T1 construct: which expresses endogenous human CRHR1; host or cells: Y79 human retinoblastoma cells
# T1 sequence (P34998 24-415): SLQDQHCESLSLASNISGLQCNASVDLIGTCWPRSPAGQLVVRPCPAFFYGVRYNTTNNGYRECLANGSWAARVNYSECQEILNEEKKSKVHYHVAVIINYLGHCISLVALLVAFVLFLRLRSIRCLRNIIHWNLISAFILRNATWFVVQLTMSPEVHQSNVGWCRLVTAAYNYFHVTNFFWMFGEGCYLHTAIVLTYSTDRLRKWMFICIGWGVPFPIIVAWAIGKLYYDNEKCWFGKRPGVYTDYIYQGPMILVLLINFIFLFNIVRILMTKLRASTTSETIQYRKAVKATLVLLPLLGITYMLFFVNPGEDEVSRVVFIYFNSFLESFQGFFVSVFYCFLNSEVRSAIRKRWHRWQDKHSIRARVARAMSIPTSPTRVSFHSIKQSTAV
# Method: CRHR agonistic activity is measured in a cell-based cAMP assay. Serial dilutions of the test peptides are made in assay buffer containing Hank's Balanced Salt Solution (HBSS, without phenol red) supplemented with 20 mM HEPES and 0.05% lactalbumin enzymatic hydrolysate (LAH) (“assay buffer”). The highest concentration that is used starts from 1 μM in the human CRHR2b, whereas 100 μM starting concentration is used in the human CRHR1 assay. A one to three dilution of the test peptides is used in both assays.
# The human Retinoblastoma cell line Y79 (ATCC #HTB-18), which expresses endogenous human CRHR1, is used in the human CRHR1 assay. The cells are grown in RPMI 1640 (Hyclone, #SH30255) containing 20% fetal bovine serum and 10 mM HEPES, in suspension culture. Cells are centrifuged to remove the culture media and washed once in HBSS supplemented with 20 mM HEPES. The cells are resuspended in the assay buffer and 20,000 cells are used per treatment in the human CRHR1 assay.
# The cells are dispensed into Costar 96-well black polystyrene half area EIA/RIA plates (Corning Incorporated, Corning, N.Y.) followed by the addition of the diluted peptides, each at a volume of 20 μL. The agonist induced cAMP levels are detected using a HTRF cAMP Dynamic 2 kit (CisBio, Bedford, Mass.). After incubation at 37° C. for 30 min, the assay is stopped by cell lysis via the addition of 20 μL of d2-labeled cAMP and followed by 20 μL of cryptate-labeled anti-cAMP antibody, as described by the manufacturer. Cellular cAMP (as a result of agonist stimulation) competes with the d2-labeled cAMP for binding to the antibody. HTRF detection is performed on an Envision plate reader (Perkin Elmer Life and Analytical Sciences, Waltham, Mass.) by measuring ratiometric emission at 620 and 665 nm after excitation at 320 nm.
# The data are converted to picomoles of cAMP using a standard curve obtained from the same assay performed with varying concentrations of unlabeled cAMP. Percent of the maximum activation of the cells is calculated using converted picomole cAMP data by comparing to the amount of cAMP produced by 1 μM human UCN2 for the human CRHR2b or 1 μM human UCN1 for the human CRHR1 assay. The data are analyzed using a Curve Fitting Tool to calculate ED50. Numeric values shown below in Table 1 represent the mean of multiple runs (number of runs shown in parentheses) following the mean value±SEM.
# [3] = male db/db mice, 16 day, 5 injections
# [4] = male db/db mice, 16 day, 5 injections, 2.4 nmol/kg
# [5] = male db/db mice, 16 day, 5 injections, 7.2 nmol/kg
# [6] = male db/db mice, 16 day, 5 injections, 24 nmol/kg
# [7] = male db/db mice, 16 day, 5 injections, 72 nmol/kg
# [8] = male db/db mice, 16 day, 5 injections, 144 nmol/kg
smiles,measurement,setting,value
CC[C@H](C)[C@H](NC)C(=O)N[C@H](C(=O)N[C@@H](CC(C)C)C(=O)N[C@@H](CO)C(=O)N[C@@H](CC(C)C)C(=O)N[C@@H](CC(=O)O)C(=O)N[C@H](C(=O)N1CCC[C@H]1C(=O)N[C@H](C(=O)NCC(=O)N[C@@H](CC(C)C)C(=O)N[C@@H](CC(C)C)C(=O)N[C@@H](CCC(N)=O)C(=O)N[C@H](C(=O)N[C@@H](CC(C)C)C(=O)N[C@@H](CC(C)C)C(=O)N[C@@H](CCC(=O)O)C(=O)N[C@@H](CCC(N)=O)C(=O)N[C@@H](CCC(=O)O)C(=O)N[C@@H](CCCCN)C(=O)N[C@@H](CCC(N)=O)C(=O)N[C@@H](CCC(=O)O)C(=O)N[C@@H](CCCCN)C(=O)N[C@@H](CCC(=O)O)C(=O)N[C@@H](CCCCN)C(=O)N[C@@H](CCC(N)=O)C(=O)N[C@@H](CCC(N)=O)C(=O)N[C@@H](C)C(=O)N[C@@H](CCCCNC(=O)COCCOCCNC(=O)COCCOCCNC(=O)CC[C@H](NC(=O)CC[C@H](NC(=O)CCCCCCCCCCCCCCCCCCC(=O)O)C(=O)O)C(=O)O)C(=O)N[C@H](C(=O)N[C@@H](CC(N)=O)C(=O)N[C@@H](C)C(=O)N[C@@H](CCC(N)=O)C(=O)N[C@H](C(=O)N[C@@H](CC(C)C)C(=O)N[C@@H](C)C(=O)N[C@@H](CCC(N)=O)C(=O)N[C@H](C(N)=O)C(C)C)[C@@H](C)CC)[C@@H](C)O)[C@@H](C)CC)[C@@H](C)CC)C(C)C)C(C)C [Example 4] (H-[NMeI]VLSLDVPIGLLQILLEQEKQEKEKQQAK([AEEA-AEEA-γGlu-γGlu-C20 diacid])TNAQILAQV-NH2),"calculated ED50, body weight lowering","[1]; db/db mice, 16 day study",30.16 nmol/kg
same,"calculated ED50, glucose lowering","[1]; db/db mice, 16 day study",13.04 nmol/kg
same,"ED50, Blood glucose AUC",[1]; [3],14.52 nmol/kg
same,"ED50, Body weight change",[1]; [3],Ambiguous
same,Blood glucose AUC,[1]; [4],7270 ± 191 mg/dL × day^−1
same,Body weight change (% change ± SEM),[1]; [4],9.7 ± 2.3%
same,Blood glucose AUC,[1]; [5],6455 ± 484 mg/dL × day^−1
same,Body weight change (% change ± SEM),[1]; [5],8.1 ± 1.2%
same,Blood glucose AUC,[1]; [6],5945 ± 621 mg/dL × day^−1
same,Body weight change (% change ± SEM),[1]; [6],6.0 ± 1.7%
same,Blood glucose AUC,[1]; [7],5746 ± 424 mg/dL × day^−1
same,Body weight change (% change ± SEM),[1]; [7],6.9 ± 1.0%
same,Blood glucose AUC,[1]; [8],5143 ± 199 mg/dL × day^−1
same,Body weight change (% change ± SEM),[1]; [8],−3.4 ± 4.6 %
CC[C@H](C)[C@H](NC)C(=O)N[C@H](C(=O)N[C@H](C(=O)N[C@@H](CO)C(=O)N[C@@H](CC(C)C)C(=O)N[C@@H](CC(=O)O)C(=O)N[C@H](C(=O)N1CCC[C@H]1C(=O)N[C@H](C(=O)NCC(=O)N[C@@H](CC(C)C)C(=O)N[C@@H](CC(C)C)C(=O)N[C@@H](CCC(N)=O)C(=O)N[C@H](C(=O)N[C@@H](CC(C)C)C(=O)N[C@@H](CC(C)C)C(=O)N[C@@H](CCC(=O)O)C(=O)N[C@@H](CCC(N)=O)C(=O)N[C@@H](CCC(=O)O)C(=O)N[C@@H](CCCCN)C(=O)N[C@@H](CCC(N)=O)C(=O)N[C@@H](CCC(=O)O)C(=O)N[C@@H](CCCCN)C(=O)N[C@@H](CCC(=O)O)C(=O)N[C@@H](CCCCN)C(=O)N[C@@H](CCC(N)=O)C(=O)N[C@@H](CCC(N)=O)C(=O)N[C@@H](C)C(=O)N[C@@H](CCCCNC(=O)COCCOCCNC(=O)COCCOCCNC(=O)CC[C@H](NC(=O)CC[C@H](NC(=O)CCCCCCCCCCCCCCCCCCC(=O)O)C(=O)O)C(=O)O)C(=O)N[C@H](C(=O)N[C@@H](CC(N)=O)C(=O)N[C@@H](C)C(=O)N[C@@H](CCC(=O)O)C(=O)N[C@H](C(=O)N[C@@H](CC(C)C)C(=O)N[C@@H](C)C(=O)N[C@@H](CCC(N)=O)C(=O)N[C@H](C(N)=O)C(C)C)[C@@H](C)CC)[C@@H](C)O)[C@@H](C)CC)[C@@H](C)CC)C(C)C)[C@@H](C)O)C(C)C [Example 5] (H-[NMeI]VTSLDVPIGLLQILLEQEKQEKEKQQAK([AEEA-AEEA-γGlu-γGlu-C20 diacid])TNAEILAQV-NH2),selectivity for CRHR2 over CRHR1,[2],"selective for CRHR2, over CRHR1"
CC[C@H](C)[C@H](NC)C(=O)N[C@H](C(=O)N[C@@H](CC(C)C)C(=O)N[C@@H](CO)C(=O)N[C@@H](CC(C)C)C(=O)N[C@@H](CC(=O)O)C(=O)N[C@H](C(=O)N1CCC[C@H]1C(=O)N[C@H](C(=O)NCC(=O)N[C@@H](CC(C)C)C(=O)N[C@@H](CC(C)C)C(=O)N[C@@H](CCC(N)=O)C(=O)N[C@H](C(=O)N[C@@H](CC(C)C)C(=O)N[C@@H](CC(C)C)C(=O)N[C@@H](CCC(=O)O)C(=O)N[C@@H](CCC(N)=O)C(=O)N[C@@H](CCC(=O)O)C(=O)N[C@@H](CCCCN)C(=O)N[C@@H](CCC(N)=O)C(=O)N[C@@H](CCC(=O)O)C(=O)N[C@@H](CCCCN)C(=O)N[C@@H](CCC(=O)O)C(=O)N[C@@H](CCCCN)C(=O)N[C@@H](CCC(N)=O)C(=O)N[C@@H](CCC(N)=O)C(=O)N[C@@H](C)C(=O)N[C@@H](CCCCNC(=O)COCCOCCNC(=O)COCCOCCNC(=O)CC[C@H](NC(=O)CC[C@H](NC(=O)CCCCCCCCCCCCCCCCCCC(=O)O)C(=O)O)C(=O)O)C(=O)N[C@H](C(=O)N[C@@H](CC(N)=O)C(=O)N[C@@H](C)C(=O)N[C@@H](CCC(=O)O)C(=O)N[C@H](C(=O)N[C@@H](CC(C)C)C(=O)N[C@@H](C)C(=O)N[C@@H](CCC(N)=O)C(=O)N[C@H](C(N)=O)C(C)C)[C@@H](C)CC)[C@@H](C)O)[C@@H](C)CC)[C@@H](C)CC)C(C)C)C(C)C [Example 6] (H-[NMeI]VLSLDVPIGLLQILLEQEKQEKEKQQAK([AEEA-AEEA-γGlu-γGlu-C20 diacid])TNAEILAQV-NH2),selectivity for CRHR2 over CRHR1,[2],"selective for CRHR2, over CRHR1"
